Experimental data taken from the antibiotic and cytotoxicity screens of Wong et al. (2023).
This is one part of the list.

Each compound was assayed on HepG2 (assay: cytotoxicity call (relative viability < 0.9)). Conditions: 10 µM.

Structure (SMILES)	cytotoxicity call
C[C@H]1CN([C@@H](C)CO)C(=O)Cc2cc(NC(=O)c3ccncc3)ccc2O[C@H]1CN(C)S(=O)(=O)c1cccs1	inactive
C[C@@H]1CN([C@@H](C)CO)C(=O)c2cc(C3=CCCCC3)cnc2O[C@@H]1CN(C)S(=O)(=O)c1cn(C)cn1	inactive
CNCCCN1c2ccccc2CCc2ccccc21.Cl	active
C[C@H]1CN([C@@H](C)CO)C(=O)Cc2cc(NC(=O)c3ccncc3)ccc2O[C@@H]1CN(C)Cc1ccc(C(=O)O)cc1	inactive
C[C@@H]1CCCCO[C@@H](CN(C)C(=O)Nc2ccccc2)[C@@H](C)CN([C@H](C)CO)C(=O)c2cc(NC(=O)Nc3ccccc3)ccc2O1	inactive
CNC[C@H]1OCCCC[C@H](C)Oc2ccc(NS(=O)(=O)c3c(C)noc3C)cc2C(=O)N([C@@H](C)CO)C[C@@H]1C	inactive
O=C(C[C@H]1CC[C@@H]2[C@H](COC[C@@H](O)CN2S(=O)(=O)c2ccccc2F)O1)NCc1ccccc1F	inactive
Cc1ccc(S[C@]2(C(=O)NCc3ccccc3)CC(=O)N(Cc3ccccc3)[C@@H]2c2ccc(COC(=O)NCCCCCC(=O)NO)cc2I)cc1	inactive
C[C@@H]1CN([C@@H](C)CO)C(=O)c2cc(-c3cccc(C(=O)N(C)C)c3)cnc2O[C@H]1CN(C)C(=O)Cc1ccccn1	inactive
NC(=O)c1ccc[n+]([C@@H]2O[C@H](COP(=O)(O)OP(=O)(O)OC[C@H]3O[C@@H](n4cnc5c(N)ncnc54)[C@H](O)[C@@H]3O)[C@@H](O)[C@H]2O)c1	inactive
COc1ccc(S(=O)(=O)N(C)C)cc1	inactive
CN1CC2(CCN(C(=O)[C@H]3CCC(=O)N3)CC2)COc2ccccc2S1(=O)=O	inactive
CC(C)CC(=O)C(=O)O	inactive
Cc1noc(C)c1S(=O)(=O)Nc1cccc2c1O[C@@H](CN(C)Cc1ccc3c(c1)OCO3)[C@@H](C)CN([C@H](C)CO)C2=O	inactive
C[C@@H]1CN([C@H](C)CO)C(=O)c2cccc(NS(=O)(=O)c3cn(C)cn3)c2O[C@H]1CN(C)C(=O)Nc1ccc2c(c1)OCO2	inactive
CN(C)CC(=O)N1CC(=O)N2[C@@H](CO)[C@H](c3ccc(C#Cc4cccnc4)cc3)[C@@H]2C1	inactive

Structure (SMILES)	cytotoxicity call
CO[C@H](CN(C)S(=O)(=O)c1ccc(Cl)cc1)[C@H](C)CN([C@@H](C)CO)S(=O)(=O)c1cccc(Cl)c1	inactive
C[C@@H]1CCCCO[C@@H](CN(C)S(=O)(=O)c2ccc(F)cc2)[C@H](C)CN([C@H](C)CO)C(=O)c2cc(NC(=O)C3CCCCC3)ccc2O1	active
COC(=O)C[C@H]1CC[C@@H]2[C@H](COC[C@@H](O)CN2S(=O)(=O)c2ccc(F)cc2)O1	inactive
C[C@H]1CN([C@@H](C)CO)C(=O)c2cc(-c3ccncc3)cnc2O[C@@H]1CN(C)C(=O)Nc1ccc2c(c1)OCO2	inactive
C[C@@H](NC(=O)c1ccnn1C)[C@H]1CCCO1	inactive
C[C@@H]1CCCCO[C@H](CN(C)C(=O)c2ccccc2)[C@@H](C)CN([C@H](C)CO)C(=O)c2cc(NC(=O)C3CCCCC3)ccc2O1	inactive
CC(=O)N[C@@H]1CC[C@@H](CCNC(=O)C2CC2)O[C@H]1CO	inactive
COc1ccc(NC(=O)N(C)C[C@H]2Oc3ccc(NC(=O)Cn4cnnn4)cc3C(=O)N([C@@H](C)CO)C[C@H]2C)cc1	inactive
C[C@H]1CN([C@@H](C)CO)C(=O)c2cccc(NC(=O)c3cnccn3)c2O[C@@H]1CN(C)S(C)(=O)=O	inactive
C[C@@H](N)C1CCC(C(=O)Nc2ccncc2)CC1 (some centres not stated)	inactive
CN(C)CCCNC(=O)C[C@H]1CC[C@H]2[C@@H](COc3ccc(NC(=O)NC4CCCC4)cc3C(=O)N2C)O1	inactive
CC(=O)N1[C@@H]2Cn3c(ccc(-c4ccccc4)c3=O)[C@H]1[C@@H](C(=O)N1CCN(C)CC1)[C@@H]2CO	inactive
C[C@H](CO)N1C[C@H](C)[C@H](CN(C)Cc2ccc(-c3ccccc3)cc2)Oc2ccc(NS(=O)(=O)c3ccc(F)cc3)cc2CC1=O	active
C[C@@H]1CCCCO[C@@H](CN(C)Cc2ccc(Cl)c(Cl)c2)[C@@H](C)CN([C@H](C)CO)C(=O)c2cc(NC(=O)C3CCCCC3)ccc2O1	active
COc1cnc(-n2cnc(C)n2)c2c1c(C(=O)C(=O)N1CCN(C(=O)c3ccccc3)CC1)cn2COP(=O)(O)O	inactive
COc1ccc(S(=O)(=O)Nc2ccc3c(c2)C(=O)N([C@H](C)CO)C[C@@H](C)[C@H](CN(C)Cc2ccc(C(=O)O)cc2)OCCCC[C@@H](C)O3)cc1	inactive
